# B1: IC-KRAS (wild type) (natural protein)
# chain: not shown
# notes: KRAS, wild type; The IC format was chosen to leave the C-terminal lipidation undisturbed; also called wild-type KRAS; KRAS WT; source: HEK 293, transiently transfected, in live cells; not shown: GP41-1 intein C-terminal fragment IC (split at C25), N-terminal, kept; FLAG, N-terminal, kept
# Target: T1, NIN-RAF1 (UniProt P04049)
# T1 construct: RAF1; also called NIN-RAF1 construct; source: HEK 293, transiently transfected, in live cells; not shown: V5, N-terminal, kept; GP41-1 intein N-terminal fragment IN (split at C25), N-terminal, kept
# Test: split reporter (BiFC, NanoBiT); SIMPL (split intein-mediated protein ligation, GP41-1 split at C25): bait and prey co-expressed in transiently transfected HEK 293 cells; spliced product seen by western blot of lysates with α-V5 and α-FLAG; rapamycin (100 nM or a dose range, 2 min to 2 h) for FRB/FKBP1A; EGF 5 min for EGFR/SHC1 in one panel
# Conditions: partners not purified
binder,measurement,value
B1,fold of the splicing signal (density) against RAF1-IN,> 6 fold

# — publication PMC7229206, “Split Intein-Mediated Protein Ligation for detecting protein-protein interactions and their inhibition” (Nature Communications, 2020)
